Experimental data from PubChem BioAssay (NCATS).
Several values for one entry are separate records, joined by “and”; a condition that tells them apart may be missing. Equal entries are not always repeated. Inconclusive results, whose numbers are uncertain, are shown with a selection of clear calls. Potencies of inconclusive entries are doubtful fits and often do not repeat. Activity calls are given as the source filed them. Calls follow the shape of the dose curve; as a rule, active = well fitted curve in the direction sought with a large enough effect; inconclusive = small, poorly fitted or top-dose-only effect, or another doubt; inactive = no such curve, though single readings can be large; an effect the other way counts as inactive or inconclusive.

How the values were obtained:
[1] = Viability qHTS for spleen associated tyrosine kinase inhibitor (SYKi) naive MV4-11 cells (AID 1963823); details: MV4-11 AML viability, CellTiter-Glo luminescence, 72 h; viability (% of control): at 45 µM (top of the series); also: nearly all actives have a fitted effect of over 40% in size
Summary of the method: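 SYK inhibitor-naive MV4-11 cells, 500 per well, exposed to compounds for 72 hr at 37 C, 5% CO2. Viability read as CellTiter-Glo luminescence after 10 min at room temperature.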

[2] = Quantitative highthroughput screen to assess conditional lethalithy of NOMO1 cells grown in RPMI1640 with untreated serum (RPMI+s) (AID 1963876); details: NOMO1 AML cells in RPMI+serum, CellTiter-Glo viability, 48 h; viability: at 45.8 µM (top of the series); also: nearly all actives have a fitted effect of over 35% in size;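 as to Viability: 100% = DMSO wells and 0% = empty wells without cells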
Summary of the method: (§1)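 Each medium arm—HPLM with 10% dialyzed FBS, or RPMI1640 with 5 mM glucose and 10% untreated or dialyzed FBS—was screened against an 11-point, 3-fold compound titration for 48 h at 37 °C, with CellTiter-Glo luminescence as endpoint.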

[3] = Quantitative highthroughput screen to assess conditional lethalithy of NOMO1 cells grown in RPMI1640 with dialyzed fetal bovine serum (RPMI+ds) (AID 1963877); also: nearly all actives have a fitted effect of over 30% in size;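 as to Viability: 100% = DMSO control wells and 0% = empty wells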
Summary of the method: as §1

[4] = Quantitative highthroughput screen to assess conditional lethalithy of NOMO1 cells grown in Human Plasma-Like Medium with dialyzed fetal bovine serum (HPLM+ds) (AID 1963878); details: NOMO1 AML cells in HPLM+ds, CellTiter-Glo viability, 48 h; viability: at 45.8 µM (top of the series); also: nearly all actives have a fitted effect of over 35% in size;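 as to Viability: 100% = DMSO wells and 0% = empty wells on each plate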
Summary of the method: as §1

[5] = Quantitative highthroughput screen to assess conditional lethalithy of P12 Ichikawa cells grown in Human Plasma-Like Medium with dialyzed fetal bovine serum (HPLM+ds) (AID 1963879); details: Potency: viability; also: nearly all actives have a fitted effect of over 35% in size
Summary of the method: as §1

[6] = Quantitative highthroughput screen to assess conditional lethalithy of SEM cells grown in Human Plasma-Like Medium with dialyzed fetal bovine serum (HPLM+ds) (AID 1963882); also: nearly all actives have a fitted effect of over 35% in size
Summary of the method: as §1

[7] = Quantitative highthroughput screen to assess conditional lethalithy of SEM cells grown in RPMI1640 with unreated serum (RPMI+s) (AID 1963883); details: SEM B-ALL cells, CellTiter-Glo viability, 48 h; viability: at 45.8 µM (top of the series); also: nearly all actives have a fitted effect of over 35% in size;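 as to Viability: 100% = DMSO wells and 0% = empty wells without cells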
Summary of the method: as §1

[8] = Quantitative highthroughput screen to assess conditional lethalithy of SEM cells grown in RPMI1640 with dialyzed fetal bovine serum (RPMI+ds) (AID 1963884); details: SEM B-ALL cells, RPMI+dialyzed FBS, CellTiter-Glo viability, 48 h; viability: at 45.8 µM (top of the series); also: nearly all actives have a fitted effect of over 35% in size
Summary of the method: as §1

[9] = Cellular viability qHTS for adrenocortical cancer (ACC) cell line SW-13 (AID 1963989); details: SW-13 ACC cells viability, CellTiter-Glo, 48 h; activity (max response): stronger effect = lower value; also: nearly all actives have a fitted effect of over 65% in size;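 as to activity (max response): cells grown in serum-free medium with ITS supplement; % is scaled to controls: 0 for no effect and ±100 for the full control effect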
Summary of the method: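 Here, serum-free SW-13 cultures were dosed up to 46 uM. Following 48 h, ATP-dependent luminescence (CellTiter-Glo) reported viable cells, and logistic modeling produced IC50 values.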

[10] = Quantitative highthroughput screen to assess conditional lethalithy of P12 Ichikawa cells grown in RPMI1640 with dialyzed fetal bovine serum (RPMI+ds) (AID 1963880); details: Potency: P12-Ichikawa viability; also: nearly all actives have a fitted effect of over 35% in size;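 as to Viability: 100% = DMSO wells and 0% = empty wells on each plate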
Summary of the method: as §1

[11] = Quantitative highthroughput screen to assess conditional lethalithy of P12 Ichikawa cells grown in RPMI1640 with untreated serum (RPMI+s) (AID 1963881); details: Potency: viability; also: nearly all actives have a fitted effect of over 35% in size
Summary of the method: as §1

[12] = Cellular viability qHTS for adrenocortical cancer (ACC) cell line NCI-H295R (AID 1963990); details: CellTiter-Glo ATP luminescence, 48 h; activity change, negative = viability loss: at 46.1 µM (top of the series); also: nearly all actives have a fitted effect of over 60% in size
Summary of the method: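 Viability of NCI-H295R after 48 h of treatment (final up to 46 uM) measured through cellular ATP luminescence.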
Potency is read from the fitted curve at half-maximal effect; tags tell the direction and shape of the fitted curve.

Compound | Potency [1] | Potency [2] | Potency [3] | Potency [4] | Potency [5] | Potency [6] | Potency [7] | Potency [8] | activity (max response) [9] | Potency [10] | Potency [11] | Potency [9] | Potency [12]
CC1(C)CCC(c2ccc(Cl)cc2)=C(CN2CCN(c3ccc(C(=O)NS(=O)(=O)c4ccc(N[C@H](CCN5CCOCC5)CSc5ccccc5)c(S(=O)(=O)C(F)(F)F)c4)cc3)CC2)C1 | active: 116 nM and active: 332 nM | active: 0.662 µM | active: 0.264 µM | inconclusive: 0.833 µM [cytotoxic, full curve] | active: 0.118 µM | active: 0.0833 µM | active: 0.0526 µM | active: 0.0526 µM | inactive: 11.1% |  |  |  | 
CCCCc1ccc2nc(NC(=O)OC)[nH]c2c1 | inconclusive: 119 nM [cytotoxic, full curve, poor fit] and inconclusive: 105 nM [cytotoxic, full curve] | inconclusive: 0.105 µM [cytotoxic, full curve] | inconclusive: 0.118 µM [cytotoxic, full curve] | inconclusive: 0.0833 µM [cytotoxic, full curve] |  | inconclusive: 0.0833 µM [cytotoxic, full curve] | active: 0.059 µM | active: 0.0418 µM |  | inconclusive: 0.0935 µM [cytotoxic, full curve] | active: 0.0833 µM |  | 
C[C@H](Cc1ccc(O)c(O)c1)[C@@H](C)Cc1ccc(O)c(O)c1 | inconclusive: 2.35 µM [cytotoxic, full curve] and active: 1.46 µM | inconclusive: 66.2 µM [cytotoxic, partial curve, poor fit] | inconclusive: 4.18 µM [cytotoxic, partial curve, poor fit] | inconclusive: 4.18 µM [cytotoxic, full curve, poor fit] | active: 20.9 µM | inconclusive: 26.4 µM [cytotoxic, single point] | inconclusive: 29.6 µM [cytotoxic, single point] | inconclusive: 26.4 µM [cytotoxic, partial curve, poor fit] |  |  | active: 18.7 µM | inconclusive: 35.5 µM [cytotoxic, single point] | inconclusive: 35.5 µM [cytotoxic, single point]
O=C(NCc1ccncc1)C12C[C@H]3C[C@@H](C1)CC(c1ccc(Cl)cc1)(C3)C2 | inconclusive: 14.8 µM [cytotoxic, partial curve] | inconclusive: 33.2 µM [cytotoxic, single point] | inconclusive: 23.5 µM [cytotoxic, single point] | active: 18.7 µM | active: 11.8 µM | active: 14.8 µM | active: 7.43 µM | active: 13.2 µM |  | active: 20.9 µM |  | inconclusive: 25.1 µM [cytotoxic, single point] | 
Oc1cc(-c2nc(-c3ccccc3)[nH]c2-c2ccncc2)ccc1Cl | inconclusive: 6.61 µM [cytotoxic, full curve] and active: 6.51 µM | inconclusive: 23.5 µM [cytotoxic, partial curve] | inconclusive: 18.7 µM [cytotoxic, partial curve] | inconclusive: 13.2 µM [cytotoxic, partial curve] |  |  | inconclusive: 37.2 µM [cytotoxic, single point] | inconclusive: 37.2 µM [cytotoxic, single point] |  | inconclusive: 14.8 µM [cytotoxic, partial curve] | inconclusive: 18.7 µM [cytotoxic, partial curve] | active: 17.8 µM | active: 28.2 µM
O=C(O)CCNC(=O)c1ccc(N=Nc2ccc(O)c(C(=O)O)c2)cc1 | inactive and inconclusive: 23.5 µM [cytotoxic, partial curve] | inactive | inactive | inconclusive: 33.2 µM [cytotoxic, partial curve, poor fit] |  |  |  |  |  | inactive |  |  | 
COc1ccc(C=Cc2cc(OC)c(OC)c(OC)c2)cc1NC(=O)[C@H](N)CO | active: 0.0332 µM | inconclusive: 0.0118 µM [cytotoxic, full curve] | inconclusive: 0.0132 µM [cytotoxic, full curve] | inconclusive: 0.0093 µM [cytotoxic, full curve] |  | active: 0.0264 µM | active: 0.0209 µM |  |  |  | active: 0.0166 µM |  | 
CCc1ccc(C(=O)Nc2cc(CN3CCN(C)CC3)cc(C(F)(F)F)c2)cc1C#Cc1cnc2ccnn2c1 | active: 2.59 µM and active: 2.06 µM | inactive | inactive | inactive |  | inconclusive: 7.43 µM [cytotoxic, full curve, poor fit] | inactive | inconclusive: 13.2 µM [cytotoxic, partial curve, poor fit] |  | inactive |  |  | 
Nc1nc(Cl)nc2c1ncn2[C@H]1C[C@H](O)[C@@H](CO)O1 | active: 0.0934 µM | active: 0.209 µM | active: 0.148 µM | active: 0.132 µM |  |  | active: 0.105 µM |  |  | active: 0.235 µM |  | inconclusive: 1.78 µM [cytotoxic, full curve] | 
COc1cc([C@@H](CC(=O)O)c2ccc(C)c(CN3C[C@@H](C)Oc4ccccc4S3(=O)=O)c2)cc2nnn(C)c12 | inconclusive: 10.5 µM [cytotoxic, partial curve] | inactive | inactive | inconclusive: 5.24 µM [cytotoxic, full curve] | active: 8.31 µM | inconclusive: 16.6 µM [cytotoxic, partial curve, poor fit] |  | inconclusive: 0.467 µM [cytotoxic, partial curve] |  |  | active: 14.8 µM | inconclusive: 31.6 µM [cytotoxic, partial curve] | 
O=C(Nc1cccc(C(F)(F)F)c1)Nc1cc(S(=O)(=O)NC2CC2)ccc1-c1ccsc1 | active: 14.8 µM | inconclusive: 29.6 µM [cytotoxic, single point] | inconclusive: 0.0743 µM [cytotoxic, full curve, poor fit] | inconclusive: 20.9 µM [cytotoxic, partial curve, poor fit] |  | inconclusive: 33.2 µM [cytotoxic, single point] | inconclusive: 37.2 µM [cytotoxic, single point] | inconclusive: 37.2 µM [cytotoxic, single point] |  | inconclusive: 37.2 µM [cytotoxic, single point] | inconclusive: 37.2 µM [cytotoxic, single point] |  | 
CCCCCCCCCCCC(CC1OC(=O)C1CCCCCC)OC(=O)C(CC(C)C)NC=O (stereo not drawn) | inconclusive: 6.61 µM [cytotoxic, full curve] | inconclusive: 37.2 µM [cytotoxic, single point] | inconclusive: 23.5 µM [cytotoxic, partial curve] | inconclusive: 29.6 µM [cytotoxic, single point] |  | active: 18.7 µM |  |  |  |  | active: 20.9 µM |  | 
Cc1ccc(NC(=O)c2cccc(C(C)(C)C#N)c2)cc1Nc1ccc2ncn(C)c(=O)c2c1 | active: 1.18 µM | inconclusive: 4.69 µM [cytotoxic, partial curve] | inconclusive: 2.96 µM [cytotoxic, partial curve] | inconclusive: 14.8 µM [cytotoxic, partial curve] | inconclusive: 2.35 µM [cytotoxic, full curve, poor fit] | inconclusive: 18.7 µM [cytotoxic, partial curve, poor fit] | inconclusive: 20.9 µM [cytotoxic, partial curve] | inconclusive: 16.6 µM [cytotoxic, partial curve] |  |  | inconclusive: 4.69 µM [cytotoxic, partial curve] | inconclusive: 5.01 µM [cytotoxic, partial curve] | inconclusive: 20 µM [cytotoxic, partial curve, poor fit]
CC(C)C[C@H](NC(=O)c1cc2ccccc2s1)C(=O)N1CCN(C(=O)[C@H](CO)NS(=O)(=O)c2ccc(Cl)cc2Cl)CC1 | active: 20.9 µM | inconclusive: 37.2 µM [cytotoxic, single point] | inconclusive: 29.6 µM [cytotoxic, single point] | inconclusive: 33.2 µM [cytotoxic, single point] | inactive | inconclusive: 23.5 µM [cytotoxic, single point] | inconclusive: 20.9 µM [cytotoxic, partial curve] | inconclusive: 16.6 µM [cytotoxic, partial curve] |  | inconclusive: 37.2 µM [cytotoxic, single point] |  | inconclusive: 28.2 µM [cytotoxic, single point] | 
COc1cc2ncn(-c3cc(OCc4ccccc4C(F)(F)F)c(C(N)=O)s3)c2cc1OC | active: 355 nM and active: 662 nM | active: 2.64 µM | inconclusive: 2.35 µM [cytotoxic, full curve] | inconclusive: 0.833 µM [cytotoxic, full curve] | active: 1.32 µM | inconclusive: 1.66 µM [cytotoxic, full curve] |  |  |  |  |  |  | inconclusive: 0.1 µM [cytotoxic, full curve, poor fit]
